Source: the GPR68 mutational scans of Howard et al. (2025)

B1: GPR68, Q15743 (parent)
chain: MGNITADNSSMSCTIDHTIHQTLAPVVYVTVLVVGFPANCLSLYFGYLQIKARNELGVYLCNLTVADLFYICSLPFWLQYVLQHDNWSHGDLSCQVCGILLYENIYISVGFLCCISVDRYLAVAHPFRFHQFRTLKAAVGVSVVIWAKELLTSIYFLMHEEVIEDENQHRVCFEHYPIQAWQRAINYYRFLVGFLFPICLLLASYQGILRAVRRSHGTQKSRKDQIQRLVLSTVVIFLACFLPYHVLLLVRSVWEASCDFAKGVFNAYHFSLLLTSFNCVADPVLYCFVSETTHRDLARLRGACLAFLTCSRTGRAREAYPLGAPEASGKSGAQGEEPELLTKLHPAFQTPNSPGSGGFPTGRLA

Assays:
[1] = variants of: B1; assay: cAMP reporter score (Enrich2 score, wild type = 0); higher = more signal; HEK293T, FACS bins
[2] = variants of: B1; assay: surface expression score (Enrich2 score, wild type = 0); higher = more signal; HEK293T, FACS bins

Row | Variant | cAMP reporter score ([1]; pH 5.5) | cAMP reporter score ([1]; pH 6) | cAMP reporter score ([1]; pH 6, modulator: ogerin) | cAMP reporter score ([1]; pH 6.5, modulator: ogerin) | surface expression score [2]
1 | P25_V26insGSG | -1.78 | -0.927 | -1.43 | -0.812 | -2.86
2 | V29_T30del | -1.8 | -1.07 | -1.42 | -0.861 | -2.69
3 | L32_V33del | -1.04 | -0.734 | -0.068 | -0.51 | -2.49
4 | L23_A24insG | -1.71 | -1.68 | -1.51 | -0.854 | -2.05
5 | L23_P25del | -0.892 | -0.872 | -1.17 | -0.819 | -1.95
6 | T18del | -1.8 | -0.791 | -1.91 | -1.5 | -0.502
7 | H20_Q21insG | -1.6 | -0.594 | -1.41 | -0.814 | -1.49
8 | V34D | -0.769 | -0.959 | -0.631 | -0.913 | -1.78
9 | V34F | 0.48 | 0.803 | 0.603 | 0.55 | 0.677
10 | V34E | -0.804 | -0.723 | -1.69 | -0.522 | -2.6
11 | V34H | -0.424 | -0.019 | 0.007 | -0.159 | -2.45
12 | V34G | -0.604 | -1.36 | -1.29 | -1.67 | -1.96
13 | V34C | 0.253 | -0.676 | -0.343 | -0.321 | -1.64
14 | V34A | -0.151 | -0.2 | -0.285 | -1.27 | -1.28
15 | H17_I19del | -1.88 | -0.625 | -1.72 | -0.842 | -1.91
16 | T30P | -1.99 | -1.16 | -0.624 |  | -1.67

Row | Variant | cAMP reporter score ([1]; pH 5.5) | cAMP reporter score ([1]; pH 6) | cAMP reporter score ([1]; pH 6, modulator: ogerin) | cAMP reporter score ([1]; pH 6.5, modulator: ogerin) | surface expression score [2]
17 | T30I | 0.932 | 1.07 | 0.874 | 1.33 | 1.76
18 | T30G | 0.817 | 0.115 | 0.271 | -0.398 | -1.17
19 | T30Y | -1 | -1.02 | -0.994 | -0.788 | -1.84
20 | T30F | 1.9 |  | 2.51 | 3.2 | 3.02
21 | T30R | -2.25 | -1.19 | -1.85 | -1.61 | -2.45
22 | T30C | 0.8 | 0.632 | 0.758 | 0.505 | 0.253
23 | T30Q | -1.86 |  | -1.48 | -0.694 | 
24 | T30D | -0.612 |  |  | -0.892 | -0.996
25 | T30K | -0.157 | 0.315 | -0.838 | -0.06 | -3.07
26 | T30L | 0.866 | 1.84 | 0.787 | 2.18 | 1.32
27 | T30V | 1.44 | 1.92 | 1.52 | 2.65 | 2.3
28 | T30E | -1.12 | -0.863 | -1.91 | -1.34 | -2.51
29 | T30A | 0.274 | 1.54 | 0.613 | 1.75 | 0.531
30 | T30W | 0.803 | 0.112 | 0.208 | -0.36 | -0.247
31 | T30H | -2.63 | -0.643 |  |  | -0.574
32 | T30M | 0.595 | 0.832 | 0.608 | 1.46 | 1.07

The least precise scores are not listed. The source holds two more conditions with little spread; they are left out. Read del as a deletion of the residues named and ins as an insertion between two positions. For some assays here: How much ogerin was present is not stated here.
